Out of some 150,000 compounds screened, about 540 (0.36%) showed an effect of 50% or more. Some of the results follow.
System: Plasmodium falciparum
Experiment: Primary screen in NF54 nanoGlo assay, in single point, at 2uM, 72h; a lower Z score goes with more inhibition
Assay type: functional, Erythrocyte
Details: timepoint 72 hour

Structure (SMILES) | % Inhibition | Z score
CC(C)(C)CN1C[C@@H]2C[C@H]1C(=O)N1CCO[C@H](CN(Cc3ccc(F)c(F)c3)C[C@H]3O[C@@H](CC(=O)N2)[C@H](O)[C@@H]3O)C1 | -15% | 2.22
Cc1noc(C)c1NC(=O)c1ccc(Cl)cc1 | -7% | 1.16
Nc1ncc(C(=O)N2CCC3(CCCC3)C2)s1 | 6% | -0.8
COc1cc2nc(N(C)C)c(CN(CCc3ccc(F)cc3)C(=O)CCn3ccc(C)n3)cc2c(OC)c1OC | 12% | -1.47
O=C(CC[C@@H]1NC(=O)NC1=O)NCc1n[nH]c2c1CCCCC2 | -14% | 1.42
COc1cccc2c1CC[C@]2(N)C(=O)NCCc1ncc[nH]1 | -4% | 0.73
CCC1(CNC(=O)[C@@H]2Cc3cc(C)ccc3S2(=O)=O)CCC1 | -9% | 1.07
COC(=O)c1cncc(C(=O)O[C@H](c2c(C)nn(C)c2C)C(F)(F)F)c1 | 4% | -0.59
CCOc1cc(C(=O)N(C)[C@@H]2CCC[C@H]2O)n[nH]1 | -9% | 1.7
CCc1ccc(N2C[C@@H](C(=O)OCc3nc(C(C)C)no3)CC2=O)cc1 | 1% | -0.1
Cc1c(CN[C@H]2CN(C(=O)OC(C)(C)C)CC2(C)C)cnn1C | -9% | 1.16
CCc1nsc(N2CC([C@H](C)O)C2)n1 | -12% | 1.55
Cc1cnccc1CN(C)C1CCN(Cc2ccco2)CC1 | -11% | 1.44
CCC(CC)(NC(=O)c1ccc(Cl)cn1)c1nnn[nH]1 | -10% | 1.29
O=C(CCc1nnc(C(=O)Nc2ccc(F)cc2)s1)NCc1cccnc1 | -9% | 1.67
Cn1cncc1-c1ccc(C(=O)N2C[C@H]3CC=CC[C@H]3C2)cc1 | -10% | 2.03
O=S(=O)(c1ccccc1)N1C[C@H](O)[C@@H](N2CCC(OCc3cccnc3)CC2)C1 | -3% | 0.5
Cc1noc(OCCN2CCO[C@@H](C)C2)n1 | -9% | 1.58
Cc1ccc2c(c1)OC[C@H](CC(=O)N1CCC(C)CC1)N2Cc1ccc(F)cc1 | -12% | 1.71
Cc1cc2nc3n(c(=O)c2n1CC(=O)Nc1ccccc1C(F)(F)F)CCC3 | 4% | -0.46
CCCc1nnc(N(C)CCN2CCOCC2)o1 | -7% | 0.83

Structure (SMILES) | % Inhibition | Z score
COc1ccc(CN2CCC3(CC2)c2ccccc2[C@@H](NC(=O)c2cccs2)[C@@H]3OC)c(F)c1 | -15% | 2
C[C@H](NC(=O)c1ncccc1Cl)C1CCCC1 | -3% | 0.46
CCc1nc(CN2C(=O)COc3ccc(S(=O)(=O)N4CCOCC4)cc32)no1 | -1% | 0.09
Nc1cccc(C(=O)Nc2cccc(C3CCOCC3)c2)c1 | -11% | 1.28
CCn1c(CC2CCNCC2)nn(Cc2cc(C)ccc2C)c1=O | -9% | 1.52
O=S(=O)(Oc1cc(Cl)ccc1-c1nc2ncccc2o1)c1ccccc1OC(F)(F)F | -7% | 0.84
CC1(C)C(c2ccccn2)=[N+]([O-])[C@@H](c2ccc(Cl)cc2Cl)N1O | -1% | 0.07
NC(=O)C1CCN(C(=O)[C@H]2CC[C@H](Cn3c(=O)[nH]c4ccccc4c3=O)CC2)CC1 | -8% | 1.02
Cc1cnc(CNS(=O)(=O)c2ccc(OC(C)C)cc2)o1 | -1% | 0.12
COc1ccc(-c2nc(C)ccc2OC)c(OC)n1 | -12% | 1.58
Cc1ccc(C(=O)Nc2c(C)n(C)n(-c3ccccc3)c2=O)cc1S(=O)(=O)Nc1cccc(C)c1C | -7% | 0.76
Cc1ccccc1C(=O)NCC(=O)Nc1ccc(-n2ccnn2)cc1 | -1% | 0.29
CCn1cnc2c1CCN([C@@H](C)c1ccccc1C)C2 | -5% | 0.48
CC(C)Cc1nc(N2CCCN(C(=O)c3ccc(C(C)(C)C)cc3)CC2)c2c(-c3ccc4ccccc4c3)noc2n1 | 0% | 0
CCC(C)[C@H](NC(=O)Nc1ccc(C)c(C)c1)C(=O)O (stereo partly specified) | 4% | -0.47
CN1CC(=O)N2C[C@@H](NC(=O)c3ccc(-c4ccsc4)cc3)C[C@H]2C1=O | 9% | -1.31
CNC(=O)CCCN(C)Cc1ccc(C)c(C)c1 | -8% | 1.19
Cc1ccc(C)c(NC(=O)Cn2c(C)ncc(C(=O)NC3CCCC3)c2=O)c1 | -11% | 1.71
Cc1nc(NC(=O)CNC(=O)OCc2ccccc2)sc1C | -9% | 0.8
Cc1cc(C)nc(NCCCOc2cccnc2)n1 | -17% | 1.62
CC1CCN(Cc2nc3cc(NC(=O)c4ccccc4Cl)ccc3n2C)CC1 | -28% | 2.46

Structure (SMILES) | % Inhibition | Z score
COc1cc(C)n(CCNC(=O)c2cn(-c3ccccc3)c(=O)cc2OC)c(=O)c1 | -1% | 0.18
CCOc1ccc(N2C[C@@H](c3nnc(NC(=O)COc4ccc(F)cc4)o3)CC2=O)cc1 | -7% | 1
C[C@H]1CN(C(=O)c2ncccc2O)CCN1C(=O)OC(C)(C)C | 1% | -0.17
O=c1[nH]nc(CNCc2c(F)c(F)c(F)c(F)c2F)[nH]1 | -2% | 0.23
O=S(=O)(NC1(c2nccs2)CCCC1)c1ccc(Cl)cc1 | -12% | 1.42
O=C(Cc1cccs1)Nc1ccc(Cl)cn1 | -3% | 0.39
O=C([C@@H]1CNCCN1C(=O)CCCc1c[nH]c2ccccc12)N1CCCC1 | -9% | 1.48
CC1CCC(C(=O)O)N(C(=O)OC(C)(C)C)C1 (stereo unspecified) | 1% | -0.09
Cc1ccc(CN(C)C(=O)N[C@H]2CCCc3occc32)nc1 | -2% | 0.2
Cc1nn(C)c2cc(NC(=O)N3C[C@@H](C4CC4)C[C@H]3C3CC3)ccc12 | 10% | -1.86
O=C(NC1CCc2c1ccc(Cl)c2Cl)N1CCC(F)(CO)C1 (stereo unspecified) | -8% | 1.28
CCOCCc1nc(Cc2noc(C)n2)no1 | -8% | 1.5
O=C(N[C@H]1CCCc2c1cnn2-c1ccccn1)C1CCS(=O)(=O)CC1 | 1% | -0.23
c1coc(-c2nnc(-c3ccc(-n4ccnc4)nc3)o2)c1 | -17% | 1.98
O=C(Nc1n[nH]c(CCC2CCCC2)n1)c1[nH]nc2c1CCC2 | -1% | 0.15
CCCNC(=O)N1C[C@@H]2CN(C(=O)c3ccccc3)C[C@]2(C(=O)N(C)C)C1 | 2% | -0.34
C[C@@H](CCCc1ccccc1)C(=O)N(C)Cc1c[nH]cn1 | -2% | 0.24
CO[C@H]1C[C@@H](O)C12CCN(c1nccc(N)n1)CC2 | -6% | 1.23
COc1ccc(OC)c(S(=O)(=O)Nc2ncn(Cc3ccccc3C)n2)c1 | -7% | 0.92
O=C(Cc1cncs1)N1CCC2(CC1)CNCc1ccccc1O2 | -11% | 1.19
Cc1ncc(Cl)c(C(=O)N2CCC3(CC2)[C@H](O)C[C@@H]3OCCO)n1 | 2% | -0.33

Structure (SMILES) | % Inhibition | Z score
COc1ccc(C2(NC(=O)c3nn(C)cc3C)CCOCC2)cc1F | 6% | -1.02
O=S(=O)(NCCO)c1ccc(-c2cnc3c(c2)CCCO3)cc1 | -6% | 0.57
C=CCN(C(=O)Cc1csc(C)n1)[C@@]1(C)CCS(=O)(=O)C1 | -11% | 1.29
CN(C)c1nc(CN(C)C2CCCCCC2)ns1 | -14% | 1.22
N#CCC(=O)c1cccc(Br)c1 | -7% | 0.75
O=C(C1CC=CC1)N1CCC[C@H](C(=O)N2CCCC2)C1 | -3% | 0.63
C[C@H]1CCCCN1C(=O)COc1ccccc1-c1nnco1 | -17% | 2.37
CCCO[C@H]1CCCN(CC(=O)NCc2cccnc2)CC1 | -2% | 0.4
COCCCN(Cc1c(C)nn(-c2ccccc2)c1N1CCN(C)CC1)S(=O)(=O)c1ccc(OC)cc1 | 1% | -0.2
O=S1(=O)NC[C@H](O)CN(CC2CCCCC2)C[C@@]2(COc3cc(-c4cccc(C(F)(F)F)c4)ccc31)C[C@@H](O)[C@@H](O)C2 | 7% | -0.79
CCCC1(C2CCN(C(=O)CCCc3ccccc3)CC2)NC(=O)N(CCC2CCCN2C)C1=O (stereo unspecified) | 5% | -0.96
O=C(Nn1cnc2ccccc2c1=O)c1cnccn1 | 34% | -0.46
Cc1cc(CS(=O)(=O)N2CCN(C)c3cc(Cl)ccc32)no1 | -2% | 0.31
Cc1ccccc1N1CCN(C(=O)C[C@H]2CCCCN(C)C2=O)CC1 | -6% | 1.06
O=C(CCCn1cccn1)N[C@@H]1[C@@H]2CCO[C@@H]2[C@@H]1C1CCCC1 | -2% | 0.23
CC[C@](C)(NCC(=O)NCc1ccco1)c1nccs1 | -7% | 0.89
CN(C)c1ccc(NC(=O)OCC(F)(F)F)cc1 | -5% | 0.88
N#Cc1ccc(NCCNS(=O)(=O)c2cccs2)cn1 | -13% | 1.94
CC(C)c1n[nH]c2c1CN(c1ccnc(C(=O)NCc3cccnc3)c1)CC2 | 12% | -1.66
CN=C(NCc1ccccc1)NCc1cnc(C)s1 | 3% | -0.35

Reference: ChEMBL document CHEMBL4888484, “Replenishing the malaria drug discovery pipeline: Screening and hit evaluation of the MMV Hit Generation Library 1 (HGL1) against asexual blood stage Plasmodium falciparum ,using a nano luciferase reporter read-out” (2022)
